Assay results: PubChem BioAssay AID463173 (ICCB-Longwood Screening Facility, Harvard Medical School, 2010)
Screen size: about 52,000 compounds; about 4,300 (8.3%) were called active. No stated cut-off is given here; in the data, active means survival mostly below about 52% (no sharp cut-off); inactive means mostly above about 56%. The list shows a part of the results.

tested on: DeltatarO mutant; test: growth inhibition of S. aureus wild type versus tarO mutant, primary screen, teichoic acid synthesis inhibitors, RN4220, OD600 (AID 463173); conditions: OD600, 18 h, stronger effect = lower value, screened at 18.75 µg/mL (by protocol)

| Compound | survival |
| --- | --- |
| COc1cccc(CNC(=O)Cn2ncn3nc(-c4cccs4)cc3c2=O)c1 | inactive: 60% |
| CCOC(=O)Cc1csc(NC(=O)CSc2nc3c(C)c(C)ccc3cc2C#N)n1 | inactive: 78% |
| CN1CCN(c2ncnc3c2cnn3-c2cccc(Cl)c2)CC1 | inactive: 101% |
| Cc1cccc(N2CCN(C3=C(c4ccccc4)C(=O)c4ccccc43)CC2)c1C | inactive: 65% |
| COc1cc(OC)c(OC)cc1/C=C/c1nc2cc3ccccc3cc2c(=O)n1-c1ccccc1Br | inactive: 81% |
| Cc1ccc(CNC(=O)c2cc(=O)c3cc(C)ccc3o2)cc1 | active: 42% |
| COc1cc2c(c(OC)c1)C(c1cccc(F)c1F)CC(=O)N2 (centres undefined) | inactive: 110% |
| CCn1cc2nc(SCc3ccccc3Cl)n(Cc3ccc(OC)cc3)c(=O)c2n1 | inactive: 87% |
| COc1cccc(CNC(=O)c2ccc(-c3nc(CSc4ccccc4)c(C)o3)cc2)c1 | inactive: 83% |
| CCCN(CCC)CCCNC(=O)c1cc2c(=O)n(C)c3ccccc3c2s1 | inactive: 141% |
| CC(=O)Nc1ccc(S(=O)(=O)n2cnc3cc(C)c(C)cc32)cc1 | inactive: 74% |
| CC(=O)Nc1ccccc1-c1nc2ccccc2n(C(C)C(=O)Nc2ccccc2C(F)(F)F)c1=O (centres undefined) | inactive: 98% |
| COc1ccc(-c2c(C)c3ccc(O)c(CN4CCC(C)CC4)c3oc2=O)cc1OC | inactive: 77% |
| COc1ccc(C(Nc2ccccn2)c2ccc3ccc(C)nc3c2O)cc1C (centres undefined) | active: 40% |
| COC(=O)c1c(NC(=O)c2cc(=O)c3ccc(C)c(C)c3o2)sc2c1CCCC2 | inactive: 84% |
| COc1ccc(CCNC(=O)CN(c2ccccc2OC)S(=O)(=O)c2ccc(C)cc2)cc1 | inactive: 71% |
| O=C(Nc1sc2c(c1C(=O)Nc1ccccc1Cl)CCCC2)c1ccccc1F | active: 48% |
| COC(=O)c1ccc(NC(=O)CSc2nc3ccc(OC)cc3[nH]2)cc1 | inactive: 184% |
| Cc1ccc(NC(=O)CSc2nc(C)c(Cc3ccccc3)c(=O)[nH]2)cc1 | inactive: 48% |
| COCCCNC(=O)Cn1c(=O)n(Cc2ccc(C(=O)NCc3ccc(C)cc3)cc2)c(=O)c2ccccc21 | inactive: 96% |
| COc1ccc(CCNC(=O)Cc2c(C)c3c(cc(C)c4c(C)coc43)oc2=O)cc1 | inactive: 89% |
| COc1ccc(N2CCN(C(=O)c3cnc(N4CCCC4)nc3C)CC2)cc1 | inactive: 101% |
| CCC(Sc1nc2ccccc2c2nc(CCc3c(C)n[nH]c3C)nn12)C(=O)Nc1ccc(F)cc1 (centres undefined) | inactive: 80% |
| COc1ccccc1CNS(=O)(=O)c1ccc2[nH]c3c(c2c1)CCCCC3 | inactive: 86% |
